# Reference: US20110130357A1 (priority 2008, published 2011)
# Key:
# [1] = system: Staphlococcus aureus (ATCC 33591); conditions: 35° C., 12-18 hrs
# Protocol: (§1) The minimum inhibitory concentration of M038 was determined for selected bacterial pathogens. For purposes of the experiments discussed in this paragraph, the minimum inhibitory concentration (MIC) is defined as the minimum concentration of compound needed to inhibit the growth of bacteria. A solution of selected bacteria was inoculated Trypticase Soy broth at 35° C. and incubated for 1-2 hours. Following incubation, the bacterial concentrations were determined, and diluted with broth, if necessary, to an absorption value of 0.08 to 0.1 at 625 nm. The adjusted inoculated medium (100 μL) was diluted with 10 ml broth, and then applied to a 96-well microtiter plate (50 μL). A series of solutions (50 μL each in 2-fold dilution) of M038 was added to the testing wells. The 96-well plate was incubated at 35° C. for 12-18 hrs. The MIC results were repeated at least three times.
# [2] = system: Klebsiella pneumonia (ATCC 700603); conditions: 35° C., 12-18 hrs
# Protocol: as §1
smiles,measurement,setting,value
"CCCCCCCCO[C@H]1[C@H](O)[C@@H](O)[C@@H](O[C@@H]2[C@@H](O)[C@H](O[C@H]3O[C@H](CN)[C@@H](O)[C@H](O)[C@H]3N)[C@@H](N)C[C@H]2N)O[C@@H]1C [JL038, 6-O-(6-Deoxy-4-O-n-octyl-α-D-glucopyranosyl)neamine]",Minimal inhibitory concentration (MIC),[1],250 μ/mL
same,Minimal inhibitory concentration (MIC),[2],250 μ/mL
